The text below walks through data of PMC4336329 (PLoS ONE, 2015).

Out of some 310,000 compounds screened, about 2,200 (0.71%) showed an effect of 50% or more. Effects have a minus sign here. The list shows a part of the results.

In the assay the target is human ether-à-go-go-related gene (hERG) potassium channel (human, UniProt Q12809). Kind of assay: primary screen, population patch clamp on CHO cells stably expressing hERG.
Sequence of human ether-à-go-go-related gene (hERG) potassium channel (Q12809 whole entry, looked up): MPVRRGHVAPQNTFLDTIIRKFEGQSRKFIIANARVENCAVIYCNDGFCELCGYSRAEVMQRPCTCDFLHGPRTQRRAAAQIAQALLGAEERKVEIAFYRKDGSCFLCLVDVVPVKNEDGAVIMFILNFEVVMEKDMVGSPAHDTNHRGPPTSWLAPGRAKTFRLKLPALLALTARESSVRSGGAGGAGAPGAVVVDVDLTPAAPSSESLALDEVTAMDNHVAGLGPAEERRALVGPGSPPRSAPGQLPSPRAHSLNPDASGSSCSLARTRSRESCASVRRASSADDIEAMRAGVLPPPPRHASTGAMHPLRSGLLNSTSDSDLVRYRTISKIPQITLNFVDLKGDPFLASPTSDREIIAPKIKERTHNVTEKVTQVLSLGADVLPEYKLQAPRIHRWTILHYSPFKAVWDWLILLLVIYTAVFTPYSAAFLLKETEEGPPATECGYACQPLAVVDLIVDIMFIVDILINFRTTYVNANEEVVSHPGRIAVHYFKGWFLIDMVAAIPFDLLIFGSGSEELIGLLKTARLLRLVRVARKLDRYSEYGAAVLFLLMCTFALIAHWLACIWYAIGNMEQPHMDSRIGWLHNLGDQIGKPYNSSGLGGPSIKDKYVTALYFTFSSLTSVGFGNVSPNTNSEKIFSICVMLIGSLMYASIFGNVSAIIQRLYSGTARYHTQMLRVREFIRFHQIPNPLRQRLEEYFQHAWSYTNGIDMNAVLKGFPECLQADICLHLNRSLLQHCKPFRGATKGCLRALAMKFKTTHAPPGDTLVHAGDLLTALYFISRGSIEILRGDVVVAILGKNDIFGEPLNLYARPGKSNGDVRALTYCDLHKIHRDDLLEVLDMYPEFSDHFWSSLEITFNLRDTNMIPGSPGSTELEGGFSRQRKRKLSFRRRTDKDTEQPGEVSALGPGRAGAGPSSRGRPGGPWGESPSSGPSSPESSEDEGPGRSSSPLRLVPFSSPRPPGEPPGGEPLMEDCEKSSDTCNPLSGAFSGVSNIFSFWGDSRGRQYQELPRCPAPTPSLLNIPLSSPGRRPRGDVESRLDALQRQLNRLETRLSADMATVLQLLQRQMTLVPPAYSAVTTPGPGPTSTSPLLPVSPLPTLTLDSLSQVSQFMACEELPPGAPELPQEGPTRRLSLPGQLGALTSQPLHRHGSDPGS
With `COc1ccccc1C(=O)NC(=S)NNC(=O)c1sc2ccccc2c1Cl`, the “hERG current change (%, negative = inhibition) at 1uM” value was determined as 15.2%. With `CC(=O)O[C@H]1c2ccccc2-c2ccccc2[C@@H]1OC(C)=O` the figure was 10.3%. With `O=C(c1ccc(Cn2cc(Br)cn2)cc1)N1CCN(c2ccccc2)CC1` the figure was 4.04%; with `Cc1ccc(C2(O)CN3CCC2CC3)cc1.Cl` (stereo not shown), 2%; with `CC1CCC(NC(=O)Cn2c(=O)oc3cc(S(=O)(=O)N4CCCC4)ccc32)CC1` (stereo not shown), 14.8%. With `Cc1nnc(SCC2=C(C(=O)O)N3C(=O)C(NC(=O)Cn4ncc(Cl)c4C)C3SC2)s1` (stereo not shown) the figure was 12.9%.

As to `O=C1CC(N2CCN(c3ncccn3)CC2)C(=O)N1CCc1ccccc1` (stereo not shown), the “hERG current change (%, negative = inhibition) at 1uM” value stood at 12%.

`Cc1ccc(C(=O)Nc2ccc3c(c2)OCCO3)c(C)c1`: the “hERG current change (%, negative = inhibition) at 1uM” value worked out at 16%. As for `O=C(O)C1CCC(CNS(=O)(=O)c2ccccc2)CC1` (stereo not shown), the “hERG current change (%, negative = inhibition) at 1uM” value was 9.37%. Consider `COc1ccc(N2CCN(C(=O)[C@H](C)NC(=O)c3ccccc3Cl)CC2)cc1`, for which the “hERG current change (%, negative = inhibition) at 1uM” value is recorded as 12.5%.

As to `COC(=O)C1=C(c2ccc(OC)c(OC)c2)C[C@@H]2CC[C@H]1N2C(=O)NCCOc1ccccc1Cl`, the “hERG current change (%, negative = inhibition) at 1uM” value came to 14.4%. The same measure for `COc1ccc(C(=O)NN(C)c2nc(C(F)(F)F)nc3ccccc23)cc1`: 15.3%; for `Cc1cc(Cl)c(S(N)(=O)=O)cc1OCC(=O)NC1CCCCC1`: 10.2%. The same measure for `COc1cccc(CNC(=O)C(=O)NCCC2CCCCN2S(=O)(=O)c2ccc(C)cc2)c1` (stereo not shown): 10.5%; for `COc1ccc(N=C2SCC(c3ccc([N+](=O)[O-])cc3)=NN2CCO)cc1`: 7.41%. As to `O=C(c1ccc(Cl)cc1)C(CN1CCCC1)c1ccccc1` (stereo not shown), the “hERG current change (%, negative = inhibition) at 1uM” value is 10.4%. With `O=C1C=C(Nc2ccccc2)CC(c2ccccc2)C1` (stereo not shown) the figure was 13.2%. The same measure for `COc1ccc(-c2cc(C)no2)cc1S(=O)(=O)N1CCN(c2ccccc2F)CC1`: 4.55%; for `COc1cc(OC)cc(C(=O)NC(C(=O)Nc2ccc3c(c2)OCCO3)C(C)C)c1` (stereo not shown): 5.12%; for `O=C1C2CCCN2C(c2ccccc2)N1c1cccc(Cl)c1` (stereo not shown): -3.47%.

Turning to `O=C(CSc1nnc(-c2ccco2)o1)NC1CCCCCC1`, the “hERG current change (%, negative = inhibition) at 1uM” value was -4.96%. In the case of `COCc1cc(=O)[nH]c(/N=C(\N)Nc2cccc(Cl)c2)n1`, the “hERG current change (%, negative = inhibition) at 1uM” value is 5.67%. With `CCOc1ccc(NC(=O)NCCCCc2ccccc2)cc1` the figure was 16.2%. For `CC(C)Sc1nc(SCC(=O)O)c2c3c(sc2n1)COC(C)(C)C3`, the “hERG current change (%, negative = inhibition) at 1uM” value was found to be 6.55%. As to `Cc1cccc(NC(=O)CCOc2ccccc2)c1C`, the “hERG current change (%, negative = inhibition) at 1uM” value is on record as 5.87%. The same measure for `CCCCN1C(=O)C(NC(=O)C2CC2)(C(F)(F)F)C2=C1CC(C)(C)CC2=O` (stereo not shown): 11.1%. The same measure for `C/C(=N\NC(=O)c1ccccc1Br)c1ccc(N2CCOCC2)cc1`: 8.25%; for `COc1ccc([N+](=O)[O-])cc1N(CC(=O)NCC1CCCO1)S(C)(=O)=O` (stereo not shown): 12.1%. With `CCc1ccc(OCC(=O)NNC(=O)CSc2nnc(-c3ccc(C)cc3)n2C)cc1` the figure was 10.2%. For `COc1ccc(CNC(=O)CSc2nnc3c(Cl)cc(C(F)(F)F)cn23)cc1OC`, the “hERG current change (%, negative = inhibition) at 1uM” value is 1.09%. `Clc1ccc(-n2nnnc2CN2CCOCC2)cc1Cl`: the “hERG current change (%, negative = inhibition) at 1uM” value is listed as 6.94%. The same measure for `CCCn1c(N)c(N(CCOC)C(=O)c2ccc([N+](=O)[O-])cc2Cl)c(=O)[nH]c1=O`: 11.4%; for `CCN(CC(=O)NCc1cccs1)C(=O)/C=C/c1ccc(OC)cc1OC`: -2.59%; for `O=C(CSc1nnc(C2CC2)n1-c1ccccc1)NCCN1C(=O)CSC1=O`: 8.18%.

In the case of `O=C(N/N=C/c1ccncc1)c1ccc(NC(=O)c2cccc(Cl)c2)cc1`, the “hERG current change (%, negative = inhibition) at 1uM” value amounted to 23.6%.

Consider `CCN(CC(=O)NC1CCS(=O)(=O)C1)C(=O)c1ccc(S(=O)(=O)N(CC)CC)cc1` (stereo not shown), for which the “hERG current change (%, negative = inhibition) at 1uM” value was 11.7%.

For `CCOC(=O)N1CCC(Nc2c(NCCN3CCN(Cc4ccccc4)CC3)c(=O)c2=O)CC1`, the “hERG current change (%, negative = inhibition) at 1uM” value was -3.25%. With `CN(C)c1ccc(N=Cc2c(O)n(CCC3=CCCCC3)c(=O)[nH]c2=O)cc1`, the “hERG current change (%, negative = inhibition) at 1uM” value is given as 7.77%. For `Cc1cc(C)c(C)c(S(=O)(=O)NC(C(=O)O)C(C)C)c1C` (stereo not shown), the “hERG current change (%, negative = inhibition) at 1uM” value came to 16.1%. Regarding `O=C1N(Cc2cccc(Cl)c2)C[C@@H]2C[C@@H](c3cccc4cccnc34)N3CCC[C@@]123`, the “hERG current change (%, negative = inhibition) at 1uM” value is reported as -63.8%.

With `Cc1nc(N)c2c(Cc3cccc4ccccc34)nn(C(C)(C)C)c2n1`, the “hERG current change (%, negative = inhibition) at 1uM” value turned out to be 4.51%.

Consider `COC(=O)c1ccc(C(=O)OC)c(NC(=S)N2CCC(N3CCCCC3)CC2)c1`, for which the “hERG current change (%, negative = inhibition) at 1uM” value was found to be 6.3%. The same measure for `COc1ccc(N2CC(C(=O)NCc3cccnc3)CC2=O)cc1` (stereo not shown): 8.95%; for `CCn1ncc([N+](=O)[O-])c1C(=O)N1CCc2ccccc2C1`: 10.3%. The same measure for `Cc1cccc(-c2nc(CSCC(=O)NCCCN3CCOCC3)c(C)o2)c1`: 13.9%; for `Cn1nnnc1SCC(=O)Nc1ccccc1C(N)=O`: 21.1%. The same measure for `CCOC(=O)CCSc1nc(-c2ccc3c(c2)OCO3)cc(C(F)(F)F)c1C#N`: 7.49%; for `O=C(CN(C(=O)CNC(=O)c1ccco1)c1ccc(F)c(Cl)c1)NC1CCCCC1`: 13.6%; for `Cc1c(Cc2ccccc2)c(=O)oc2c(C)c(OCC(=O)NCC3CCC(C(=O)O)CC3)ccc12` (stereo not shown): 16.8%.

Consider `CCn1c(SCC(=O)N2CCCC2)nnc1-c1ccc(N)cc1`, for which the “hERG current change (%, negative = inhibition) at 1uM” value was found to be 11.2%. With `COCCn1c(SCC(=O)Nc2ccc(Cl)cn2)nnc1-c1ccncc1` the figure was -13.8%; with `Cn1c(=O)cc(SCC(=O)NCC2COc3ccccc3O2)c2ccccc21` (stereo not shown), 12%; with `S=c1nc(C2COc3ccccc3O2)[nH][nH]1` (stereo not shown), 18.6%. The same measure for `Cc1c([N+](=O)[O-])cc(C(=O)Nc2ccc(NC(=O)c3ccco3)cc2)cc1[N+](=O)[O-]`: 7.93%; for `CCCn1c(C(C)NC(=O)c2ccccc2)n[nH]c1=S` (stereo not shown): 14.7%.
